In PubChem BioAssay (NCI):
Values joined by “and” are separate entries in the source; they are usually repeats but may differ in a detail not shown here. Equal values may be shown once.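 Cells were grown in 96-well plates and exposed to each compound for 48 hours at five concentrations; endpoints were interpolated linearly between bracketing concentrations, or set to the highest concentration if not reached. Here, GI50 denotes the concentration required for 50% inhibition of growth. Definition used: TGI = concentration required for complete inhibition of growth.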

Each compound was assayed on NCI-H322M lung (assay: DTP human tumour cell line panel, 48 h).

SMILES	TGI	GI50
O=C(NCCN(CCNC(=O)c1cccc(=O)n1O)CCN(CCNC(=O)c1cccc(=O)n1O)CCNC(=O)c1cccc(=O)n1O)c1cccc(=O)n1O	> 100 µM	–
Cc1c2c(nn1-c1ccc(S(=O)(=O)NC(=S)Nc3ccccc3)cc1)-c1ccccc1CC2	> 50 µM	> 50 µM
COc1cc2c3c(n(C)c(=O)c2cc1OC)-c1cc2c(cc1/C3=C\CCCCCN)OCO2	41.4 µM	–
COc1cc(/C(C#N)=C/c2ccc3c(c2OC)OCO3)cc2c1OCO2	27.9 µM	0.754 µM
CCOC/N=C(/N)NC#N	> 100 µM	–
COC1=CC(=O)c2ccccc2C1(CCC=C(C)C)C1=NC(C)(C)CO1 (stereo not drawn)	> 100 µM	–
CNC(=O)c1cc(OC2CCC(NC(=O)Nc3ccc(Cl)c(C(F)(F)F)c3)CC2)ccn1 (stereo not drawn)	37 µM	12.7 µM
CCNC(=O)Nc1cccc(C)n1	> 100 µM	–
Cc1cnc2c(C)ccc([N+](=O)[O-])c2c1NCCCN(C)C	> 100 µM	–
COc1cc(O)c([C@@H]2C[C@H](CCc3ccc(O)cc3)O[C@H](c3ccc(O)cc3)C2)c(O)c1C(=O)/C=C/c1ccc(O)cc1	12.8 µM	3.58 µM
O=C(Oc1ccc(Cl)cc1Cl)c1ccccc1Nc1ccnc(C(F)(F)F)c1	28.4 µM	14 µM
COC(=O)C1CC2(CC3=C1CCCC3)OCCO2 (stereo not drawn)	> 100 µM	–
CCC[CH2][Sn-]([CH2]CCC)([CH2]CCC)[O]c1cc(Cl)c(Cl)cc1Cl	0.498 µM	0.193 µM
Cc1ccc(S(=O)(=O)N/C(=C\C=C\c2ccccc2)C(=O)C(C)(C)C)cc1	84.2 µM	–
N#CCC(=O)Nc1cccc(C(F)(F)F)c1	> 100 µM	–
Cc1nc2c(nc1C)C(=O)c1cc(O)ccc1C2=O	> 100 µM	–
CCOc1cc2ncc(C#N)c(Nc3ccc(OCc4cccc(F)c4)c(Cl)c3)c2cc1NC(=O)CC1CCSS1 (stereo not drawn)	2 µM	0.6 µM
CS(=O)(=O)CCNCc1nc(-c2ccc3ncnc(Nc4ccc(F)c(Cl)c4)c3c2)cs1	> 25 µM	0.304 µM
CC(=O)Nc1ccc2c(c1)c(C1=C(c3cn(C)c4ccccc34)C(=O)NC1=O)cn2C	> 25 µM	9.59 µM
Cc1ccc(C)n2c1nc1ccc3ccccc3c12	> 100 µM	–
CC(C)Oc1c(-c2c(OC(C)C)c(=O)c2=O)c(=O)c1=O	> 100 µM	–
COc1cc(-c2nc3cc(F)ccc3s2)ccc1O	> 100 µM	–
Cn1c(=O)c2c(nc(NCCCCl)n2CC(=O)O)n(C)c1=O	> 100 µM	–
CC(=O)OC(Cc1cc(C=C(C(F)(F)F)C(F)(F)F)cc(C)n1)(C(F)(F)F)C(F)(F)F	4.02 µM	–
CN1CCN(CN2C(=O)C3C4C=CC(C3C2=O)C2C3C(=O)N(CN5CCN(C)CC5)C(=O)C3C42)CC1 (stereo not drawn)	> 100 µM	43.1 µM and > 64.2 µM and > 100 µM

SMILES	TGI	GI50
COc1ccc2c3c1OC1CC(O)C=CC31CCN(C)C2 (stereo not drawn)	> 99.8 µM	–
Cc1ccc(OCC(=O)N2N=C(c3ccccc3)CC2(O)c2ccccc2)cc1 (stereo not drawn)	> 100 µM	–
N#Cc1c(-c2nc3ccccc3s2)c(=O)oc2cc(O)ccc12	> 100 µM	–
Cc1c(-c2c(C)c3ccccc3n2S(=O)(=O)c2ccccc2)n(S(=O)(=O)c2ccccc2)c2ccccc12	> 100 µM	–
C=C1C(=O)O[C@H]2[C@H]1CC/C(Cn1cc(CNC(=O)Cc3cn(C(=O)c4ccc(Cl)cc4)c4ccc(OC)cc34)nn1)=C\CC[C@@]1(C)O[C@@H]21	22.6 µM	10.6 µM
O=C(O)CSc1n[nH]c(-c2ccc(O)cc2)n1	> 100 µM	–
COc1ccc2c(c1)O[C@@H]1C(O)Oc3cc(OC)c(OC)cc3[C@]1(O)C2=O (stereo partly drawn)	> 100 µM	–
COC1C(O)CC(OC2C(C)OC(Oc3cc(O)c4c(O)c5c(cc4c3)C[C@@H]([C@H](OC)C(=O)[C@@H](O)[C@@H](C)O)[C@H](OC3CC(OC4CC(OC6CC(C)(O)C(O)C(C)O6)C(O)C(C)O4)C(O)C(C)O3)C5=O)CC2OC(C)=O)OC1C (stereo partly drawn)	> 100 µM	–
O=C(Nc1sccc1S(=O)(=O)c1ccccc1)c1cccnc1	> 100 µM	–
CCOC(=O)[C@@]1(C)C=C2O[C@@H]3OC4(CCCCC4)O[C@@H]3C2=C2C(O)=CC=C(O)[C@]21C(=O)OC	> 68 µM	–
COc1ccc2[nH]c3c(c2c1)CCN(C)CC3	> 100 µM	–
COc1ccc(C(=O)/C(Br)=C/C(=O)O)cc1	158 µM and 233 µM	–
N=C(N)SCCON1C(=O)c2ccccc2C1=O	> 100 µM	–
COC(=O)c1cc(C)ccc1CC(Cc1cccc(C)c1)C(=O)OC (stereo not drawn)	> 100 µM	–
O=C(CCCCCCSc1nc(-c2ccccc2)cc(-c2ccc(Cl)cc2)n1)NO	11.9 µM	2.57 µM
O=[N+]([O-])C1C(c2ccccc2)C12c1ccccc1-c1ccccc12 (stereo not drawn)	56.1 µM	5.38 µM
CC(C)CCCC(C)[C@H]1CCC2[C@@H]3CCC4Cc5nc6c(nc5C[C@]4(C)C3CC[C@@]21C)CC1CC[C@@H]2C(C[C@@H](O)[C@@]3(C)C2C[C@@H]2OC4(CCC(C)CO4)C(C)[C@@H]23)[C@@]1(C)C6 (stereo partly drawn)	> 100 µM	–
Nn1c(-c2ccccc2)nc2ccc(Br)cc2c1=O	> 100 µM	–
Cc1c(C)c(C)c(-n2[nH]c(=O)n(C)c2=O)c(C)c1C	> 100 µM	–
CCC1C(=O)C[C@H]2[C@@H]3C(O)CC4=CC(=O)CC[C@]4(C)[C@H]3CC[C@]12C (stereo partly drawn)	> 50 µM	–
O=C(NNc1nc(Cl)nc(N2CCN(C(c3ccccc3)c3ccccc3)CC2)n1)c1ccccc1	3.54 µM	1.67 µM
COC(=O)C12Oc3ccc(-c4ccc5c(c4O)C(=O)C4=CCC(C)C(O)C4(C(=O)OC)O5)c(O)c3C(=O)C1=CCC(C)C2O (stereo not drawn)	13.4 µM	–
COc1ccc2c(c1)/C(=C\c1c(C)nc3sc(C)cn13)C(=O)N2C	52.6 µM	7.11 µM
CC(=O)NNc1nc(C)c(C(/C=C/c2ccc3c(c2)OCO3)=N/Nc2ccccc2)s1	> 100 µM	–
CN(C)c1cccc2c(S(=O)(=O)N[C@H]3CC[C@H]4[C@@H]5CCc6cc(O)ccc6[C@H]5CC[C@]34C)cccc12	25.8 µM	3.99 µM

SMILES	TGI	GI50
c1ccc(CNc2c3c(nc4ccccc24)CCC3)cc1	46.7 µM	–
Cc1ccc(F)cc1NC(=O)O/N=C(\Cl)C(C)C	33.1 µM	–
CN(C)c1ccc(/C=N/Nc2nc3ccccc3c(=O)n2-c2ccccc2)cc1	> 100 µM	–
Cc1ccc2c(=O)cc(-c3csc4ccccc34)[nH]c2n1	66.3 µM	–
CCOC(C[Se]CC(OCC)OCC)OCC	> 100 µM	–
COc1nc(N(C)O)nc(N(C)O)n1	> 100 µM	0.752 µM
CCCC/C=C1\CCC(CN2CCCCC2)C1=O (stereo not drawn)	47.4 µM	–
CC(=O)NCCCCNCCCNC(C)=O	> 100 µM	–
O=C(c1ccccc1)C(c1ccccc1)C1(O)C(=O)Nc2c(Cl)cc(Cl)cc21 (stereo not drawn)	40.4 µM	–
COc1ccc(N[C@H](CS(=O)c2ccc(C)cc2)c2ccc(F)cc2)cc1 (stereo partly drawn)	> 100 µM	–
O=P(O)(CCP(=O)(O)c1ccccc1)c1ccccc1	> 100 µM	–
Cc1cc2c(c(C#N)c1C)NC(=O)CCC2=O	> 100 µM	–
O=C1NCc2ccc3c(-c4cccc(Cl)c4)c[nH]c3c21	> 50 µM	1.21 µM
CC1(C)OC2OC(COC(=O)C=[N+]=[N-])C3OC(C)(C)OC3C2O1 (stereo not drawn)	> 100 µM	–
Cc1ccc(C(=O)OC[C@H]2CC[C@@H](n3cc(N(C)C4CCCCC4)c(=O)[nH]c3=O)O2)cc1	> 100 µM	–
CCN(CC)Cc1nc2sc3c(c2c(=O)n1-c1ccccc1)CCCC3	> 100 µM	–
CCOC(=O)c1c2c(n3ccc(NC(=O)CCN4CCCC4)cc13)C(=O)c1ncccc1C2=O	3.36 µM	1.5 µM
CC1=NOC2(C1)/C(=N/O)CCC/C2=N\O (stereo not drawn)	> 100 µM	–
O=C1CC(O)C=C1Nc1ccc(Cl)cc1 (stereo not drawn)	> 100 µM	–
COc1ccc(CCn2cnc3ccccc32)cc1	> 100 µM	–
O=C1C(=O)N(C(=O)c2ccc(Cl)c(Cl)c2)c2ccccc21	> 100 µM	–
C=CC[C@H]1[C@@H](O[Si](C)(C)C(C)(C)C)[C@H](n2ccc(=O)[nH]c2=O)O[C@@H]1CO[Si](C)(C)C(C)(C)C	6.27 µM	–
O=C(O)c1c(-c2cccc3ccccc23)sc(-c2cccc3ccccc23)c1C(=O)O	> 100 µM	–
COc1cccc(C2CC(C)(N3CCCC3)Oc3cc4c(cc32)OCO4)c1O (stereo not drawn)	> 100 µM	–
CC[C@H](C)N(CCN)C(=O)c1cc2ccccc2c(-c2ccccc2Cl)n1	26.4 µM	–

SMILES	TGI	GI50
CC(C)C[C@H](NC(=O)[C@H](Cc1cccc2ccccc12)NC(=O)N1CCOCC1)B(O)O	0.207 µM and 0.184 µM	0.0406 µM
Nc1nc(SCc2ccccn2)c2ncn(C3CCCC3)c2n1	> 100 µM	–
C=CC(=O)N1C/C(=C\c2ccc(N(C)C)cc2)C(=O)/C(=C/c2ccc(N(C)C)cc2)C1	> 100 µM	–
Nc1ccn(CCOC(=O)c2ccccc2)c(=O)n1	> 100 µM	–
OC(C1CCC=NN1C(O)(C(F)(F)F)C(F)(F)F)(C(F)(F)F)C(F)(F)F (stereo not drawn)	> 10 µM	–
CC(C)/C(Cl)=N/OC(=O)Nc1ccc(F)c(Cl)c1	32.7 µM	–
COc1ccc(-c2nc3sc(C)cn3c2/C=C/C(=O)c2cc(OC)c(OC)c(OC)c2)cc1	> 100 µM	5.65 µM
CC(=O)O/C=C\OC1CCCC1(c1ccccc1)c1ccccc1 (stereo not drawn)	25.1 µM	–
COC(=O)CCCc1ccc2c(c1)CC1(C2)Cc2cc3c(cc2C1)CCCC3	> 100 µM	–
CC(C)(C)OC(=O)n1cc(C2CNC(=O)C23CCC(=O)N3Cc2ccccc2)c2ccccc21 (stereo not drawn)	> 100 µM	–
COC(=O)Cc1ccc2c(c1)Sc1ccc(CC(=O)OC)cc1N2C	> 100 µM	–
Cc1ccc(CNc2c3ccccc3nc3ccccc23)cc1	5.89 µM	2.09 µM
CC(C)(CO)CNc1cc(=O)[nH]c(N)n1	> 100 µM	–
Cn1c2c(c3ccccc31)CCN(CCCCN1CCc3c(n(C)c4ccccc34)C1=O)C2	> 100 µM	–
Cc1cc2c(cc1Cl)Sc1nnc(Nc3ccccc3)n1S2(=O)=O	49.5 µM	–
COC(=O)N[C@H]1CCc2c(Br)c(OC)c(OC)c(OC)c2-c2ccc(SC)c(=O)cc21	> 100 µM	< 0.01 µM
COc1ccc(N(C(=O)Nc2ccc(Cl)c(Cl)c2)c2ccccc2)cc1	> 10 µM	–
O=C1C(Br)=CC2([N+](=O)[O-])CCNc3c(O)c4c5c(c3C2=C1Br)=NCCC=5C=N4 (stereo not drawn)	6.05 µM	–
CCOC(=O)C(=O)Nc1nc2c(s1)C(=O)c1ccccc1C2=O	30.3 µM	–
COc1ccc(N2C=Nn3c(nc4sc(C)c(C)c4c3=O)C2)cc1	> 100 µM	–
CCc1cccc(C(C)C)c1NC(=O)C(=O)C(Cc1nc2ccccc2[nH]c1=O)C(=O)OC (stereo not drawn)	> 100 µM	–
COc1ccc(C2=C(OC(=O)N(C)C)c3cccn3-c3cc(C(F)(F)F)ccc3S2)cc1	> 10 µM	–
CSc1nc(NC2CCCC2)c2cc[nH]c2n1	> 100 µM	–
CCOC(=O)c1ccc(NC(=O)N2CC(C)OC(C)C2)cc1 (stereo not drawn)	> 100 µM	> 100 µM
